{
  "source": "PubChem BioAssay AID686978",
  "about": "(National Center for Advancing Translational Sciences (NCATS), 2013)",
  "note": "Screen size: about 420,000 compounds; about 64,000 (15%) were called active. This list was built around the results that the source calls inconclusive (neither active nor inactive); the mix of calls is not that of the screen. Calls follow the shape of the dose curve; as a rule, active = well fitted inhibition curve with a large enough effect; inconclusive = small, poorly fitted or top-dose-only effect; inactive = flat fitted curve, though single readings scatter. Potencies of inconclusive entries are left out as doubtful fits. % is scaled to controls: 0 for no effect and ±100 for the full control effect; potency is read from the fitted curve at half-maximal effect; tags tell the direction and shape of the fitted curve.",
  "data": [
    {"test": "qHTS for Inhibitors of human tyrosyl-DNA phosphodiesterase 1 (TDP1): qHTS in cells in absence of CPT; also: nearly all actives have a fitted effect of over 55% in size", "conditions": "DT40 Tdp1-/- hTDP1 cells, no CPT, ATP luminescence, 48 h; activity change, negative = growth inhibition: at 46.2 µM (top of the series) unless noted", "method_in_brief": "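Chicken DT40 Tdp1-/- cells complemented with human TDP1, screened without camptothecin (DMSO vehicle only), 400 cells/well. Compounds pin-transferred, cells incubated at 37 °C for at least 48 hr. Growth read as ATP-dependent luminescence (CellTiter-Glo, 30 min at RT).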", "values": [
      {"smiles": "CCOc1ccccc1Nc1cc(C)nc2nc(C)nn12", "activity change, negative = growth inhibition": "inactive: 2.38%"},
      {"smiles": "O=C(C1CCCN(Cc2ccccc2[N+](=O)[O-])C1)N1CCCCC1", "note": "(centres undefined)", "activity change, negative = growth inhibition": "inactive: -28.6%"},
      {"smiles": "N#C/C(=C\\c1cccnc1)C(=O)Nc1cccc(Cl)c1", "activity change, negative = growth inhibition": "inactive: -21.5%"},
      {"smiles": "CCn1c(SCC(=O)Nc2oc(C)c3c(C)n[nH]c(=O)c23)nnc1-c1ccco1", "activity change, negative = growth inhibition": "inactive: -13.9%"},
      {"smiles": "Cc1nc2nc(NCc3ccc(Cl)cc3)[nH]n2c(=O)c1Cc1ccccc1", "activity change, negative = growth inhibition": "inactive: -15.2%"},
      {"smiles": "COc1ccc(OCC(O)CNS(=O)(=O)c2cccc(Cl)c2)cc1", "note": "(centres undefined)", "Potency": "inconclusive [inhibitor, single point]"},
      {"smiles": "NC(=O)c1c(NC(=O)CN2C(=O)NC(Cc3ccccc3)C2=O)sc2c1CCC2", "note": "(centres undefined)", "activity change, negative = growth inhibition": "inactive: -28.8%"},
      {"smiles": "S=c1[nH]c2ccc(Cl)cc2s1", "activity change, negative = growth inhibition": "inactive: -24.9%"},
      {"smiles": "Cc1cc(C(=O)Nc2cccc(-c3nc(CNC(=O)c4cnccn4)c(C)o3)c2)c(C)o1", "Potency": "inconclusive [inhibitor, single point]"},
      {"smiles": "Cc1cccc2c1N(C(=O)c1ccco1)C(C)(C)c1ssc(=S)c1-2", "Potency": "inconclusive [inhibitor, single point]"},
      {"smiles": "COc1ccc2cc3c(N)nn(C(=O)c4ccccc4[N+](=O)[O-])c3nc2c1", "Potency": "active: 2.31 µM"},
      {"smiles": "COc1ccc(Cl)cc1NC(=O)CN1CCN(C(=O)N2CCOCC2)CC1", "activity change, negative = growth inhibition": "inactive: -16.6%"},
      {"smiles": "Cn1c(SCCS(=O)(=O)c2ccc(Cl)cc2)nnc1-c1ccccc1", "Potency": "inconclusive [inhibitor, partial curve, poor fit]"},
      {"smiles": "O=C(O)c1ccc2c(c1)OCCO2", "activity change, negative = growth inhibition": "inactive: -9.22%"},
      {"smiles": "S=c1[nH]c(=S)c2n[nH]nc2[nH]1", "Potency": "inconclusive [inhibitor, single point]"},
      {"smiles": "COC(=O)c1scc(-c2ccc(C)cc2)c1S(=O)(=O)N1CCN(c2ccc(C(C)=O)cc2)CC1", "Potency": "inconclusive [inhibitor, partial curve]"},
      {"smiles": "Cc1ccc2c(c1)c1c(n2CC(O)Cn2c(C)nc3ccccc32)/C(=N\\O)CCC1", "note": "(centres undefined)", "Potency": "active: 23.1 µM"},
      {"smiles": "CCn1c2ccccc2c2cc(/C=N/NC(=O)c3cccc(C)c3)ccc21", "Potency": "active: 18.4 µM"},
      {"smiles": "COc1ccc(C(=O)N/C(=C/c2ccc(Cl)cc2)C(=O)NCc2ccncc2)cc1", "Potency": "inconclusive [inhibitor, partial curve, poor fit]"},
      {"smiles": "O=C(NCC(=O)N1CCN(Cc2c(F)cccc2Cl)CC1)c1cccs1", "Potency": "inconclusive [inhibitor, single point]"},
      {"smiles": "CCn1nc(C)c(/C=N/NC(=O)Cn2nc(C)cc2C)c1C", "activity change, negative = growth inhibition": "inactive: 5.22%"},
      {"smiles": "O=C(c1ccc2nccnc2c1)N1CCCC(N2CCN(c3ccc(F)cc3)CC2)C1", "note": "(centres undefined)", "Potency": "inconclusive [inhibitor, single point]"},
      {"smiles": "Cc1ccccc1C(=O)N1CCC(C(=O)Nc2cccc(S(=O)(=O)N3CCCCC3)c2)CC1", "Potency": "inconclusive [inhibitor, partial curve]"},
      {"smiles": "O=C(CSc1ccc(Cl)cc1)Nc1ccc(NC(=O)c2ccco2)cc1", "activity change, negative = growth inhibition": "inactive: -10.1%"},
      {"smiles": "CCOc1ccc(NS(=O)(=O)c2c(C)nc3sccn3c2=O)cc1", "Potency": "inconclusive [inhibitor, single point]"},
      {"smiles": "CCCn1c(CCC(=O)Nc2ccc(OCC)cc2)nc2cccnc21", "Potency": "inconclusive [inhibitor, single point]"},
      {"smiles": "CCOC(=O)C1=CN(Cc2ccco2)S(=O)(=O)NC1c1ccc(F)c(Cl)c1", "note": "(centres undefined)", "activity change, negative = growth inhibition": "inactive: -8.97%"},
      {"smiles": "Cn1c(=O)c2[nH]c(CCCCCCCc3nc4ccccc4[nH]3)nc2n(C)c1=O", "Potency": "active: 13 µM"},
      {"smiles": "COc1c(O)cc(O)c2c(=O)cc(-c3ccccc3)oc12", "Potency": "inconclusive [inhibitor, single point]"},
      {"smiles": "CC1CCN(S(=O)(=O)c2cccc(C(=O)N3CCN(c4ccc(F)cc4)CC3)c2)CC1", "Potency": "inconclusive [inhibitor, partial curve, poor fit]"},
      {"smiles": "CCOC(=O)c1c(C)oc2nc(C)nc(NCc3ccc(F)cc3)c12", "Potency": "active: 16.4 µM"},
      {"smiles": "CCOC(=O)N1CCN(C(=O)c2cc(COc3ccc(Cl)cc3OC)on2)CC1", "Potency": "inconclusive [inhibitor, single point]"},
      {"smiles": "Brc1ccc2ncnc(NCc3ccccc3)c2c1", "Potency": "active: 8.2 µM"},
      {"smiles": "O=c1cc(/N=C/c2coc3cc(Br)ccc3c2=O)[nH]c(=S)[nH]1", "Potency": "inconclusive [inhibitor, full curve]"},
      {"smiles": "COc1cccc(CN(C)C(=O)c2cc(-c3ccc(F)cc3)nc3ccccc23)c1", "Potency": "active: 20.6 µM"},
      {"smiles": "O=C(CSc1ccc(Cl)cc1)N1CCCC1", "Potency": "inconclusive [inhibitor, single point]"},
      {"smiles": "CCOC(=O)C1(Cc2ccc(Cl)cc2)CCN(C(=O)c2cscn2)CC1", "Potency": "inconclusive [inhibitor, single point]"},
      {"smiles": "O=C1CCCN1CCCNc1ncccc1[N+](=O)[O-]", "activity change, negative = growth inhibition": "inactive: -7.56%"},
      {"smiles": "CC1(c2nnc(-c3ccncc3)o2)CC(c2cccnc2)=NO1", "note": "(centres undefined)", "activity change, negative = growth inhibition": "inactive: -1.46%"},
      {"smiles": "COc1cccc(CNC(=O)C2CCCN2S(=O)(=O)c2ccc3c(c2)C(C)(C)C(=O)N3C)c1", "note": "(centres undefined)", "activity change, negative = growth inhibition": "inactive: -17.2%"},
      {"smiles": "O=C(NNC(=O)c1ccccc1O)c1ccc(Cl)c(S(=O)(=O)N2CCCCC2)c1", "Potency": "inconclusive [inhibitor, single point]"},
      {"smiles": "O=C(COCC(=O)N/N=C/c1ccccc1F)N/N=C/c1ccccc1F", "Potency": "inconclusive [inhibitor, single point]"},
      {"smiles": "COc1ccc(C(=O)Nc2nnc(SCc3cc(=O)c4cc(C)cc(C)c4[nH]3)s2)cc1", "activity change, negative = growth inhibition": "inactive: -20.1%"},
      {"smiles": "c1ccc(CCc2nn3c(Cc4ccccc4)nnc3s2)cc1", "Potency": "inconclusive [inhibitor, single point]"},
      {"smiles": "O=C(NCCN1CCOCC1)c1cc2sccc2n1Cc1ccc(F)cc1", "Potency": "inconclusive [inhibitor, single point]"},
      {"smiles": "O=C(CN1C(=O)NC2(CCCCCCC2)C1=O)NCc1ccc(F)cc1", "activity change, negative = growth inhibition": "inactive: -0.899%"},
      {"smiles": "COc1ccccc1C(C)NCC(=O)NCC(=O)Nc1ccc(F)c(F)c1F", "note": "(centres undefined)", "activity change, negative = growth inhibition": "inactive: -26.7%"},
      {"smiles": "Cc1nc(SCC(=O)c2ccc(Cl)s2)c2oc3ccccc3c2n1", "Potency": "inconclusive [inhibitor, single point]"},
      {"smiles": "O=C(Nc1cccc(S(=O)(=O)N2CCCCC2)c1)c1ccc(S(=O)(=O)C(F)F)cc1", "Potency": "inconclusive [inhibitor, single point]"},
      {"smiles": "CCNC(COC(=O)c1ccc([N+](=O)[O-])cc1)C1CCCCC1", "note": "(centres undefined)", "Potency": "inconclusive [inhibitor, single point]"},
      {"smiles": "C/C(N)=C(/C#N)C(=O)CSc1nc2scc(-c3ccccc3)c2c(=O)n1C", "Potency": "inconclusive [inhibitor, partial curve]"},
      {"smiles": "Cc1nn(C)cc1S(=O)(=O)Nc1ccc(C(F)(F)F)cc1", "activity change, negative = growth inhibition": "inactive: 15.8%"},
      {"smiles": "O=C(NCCOc1nc(N2CCOCC2)nc(N2CCOCC2)n1)Nc1ccccc1", "Potency": "inconclusive [inhibitor, single point]"},
      {"smiles": "CCOc1ccc(NC(=O)COC(=O)C2CCC(=O)N2)c([N+](=O)[O-])c1", "note": "(centres undefined)", "Potency": "inconclusive [inhibitor, partial curve, poor fit]"},
      {"smiles": "Cc1nn(Cc2ccccc2)c2ncccc12", "Potency": "inconclusive [inhibitor, full curve, poor fit]"},
      {"smiles": "CCOc1ccc2[nH]cc(S(=O)(=O)c3ccc(F)cc3)c(=O)c2c1", "Potency": "active: 9.2 µM"},
      {"smiles": "CC(=O)Oc1c(C)c2c3c(c1OC(C)=O)[C@@H](C)CC[C@@H]3[C@@H](C)C[C@H]2C=C(C)C", "Potency": "inconclusive [inhibitor, single point]"},
      {"smiles": "CC1(C(=O)NCc2ccccc2)CSCC(=O)N1Cc1cccc(F)c1", "note": "(centres undefined)", "Potency": "inconclusive [inhibitor, single point]"},
      {"smiles": "Cc1ccc(Cl)cc1NC(=O)C(C)n1nc(-c2ccccc2)ccc1=O", "note": "(centres undefined)", "activity change, negative = growth inhibition": "inactive: -19.8%"},
      {"smiles": "CCOC(=O)C1CCN(C(=O)c2ccc(NC(=O)C3CCCO3)cc2)CC1", "note": "(centres undefined)", "activity change, negative = growth inhibition": "inactive: -7.74%"},
      {"smiles": "Cc1ccc(-n2ncc3c(NCCC4=CCCCC4)ncnc32)cc1", "Potency": "inconclusive [inhibitor, single point]"},
      {"smiles": "O=C(NCc1ccco1)c1sc(=S)n2c1[nH]c(=O)c1ccccc12", "Potency": "inconclusive [inhibitor, single point]"},
      {"smiles": "Cc1ccc(CN2CCCN(C)CC2)c(C)c1", "Potency": "inconclusive [inhibitor, single point]"},
      {"smiles": "COc1ccc(CN(C(=O)CN2C(=O)c3ccccc3S2(=O)=O)C(C(=O)NCC2CCCO2)c2ccco2)cc1", "note": "(centres undefined)", "activity change, negative = growth inhibition": "inactive: -3.75%"},
      {"smiles": "CCCCCCC(=O)N1CCN(c2cc3c(cc2F)c(=O)c(C(=O)O)cn3CC)CC1", "Potency": "inconclusive [inhibitor, single point]"},
      {"smiles": "N#CCCn1c(=O)c(-c2ccccc2)nc2cnc(Oc3ccccc3)nc21", "Potency": "inconclusive [inhibitor, single point]"},
      {"smiles": "Cc1ccccc1OCCNC(=O)CSc1ccc(C(F)(F)F)cc1[N+](=O)[O-]", "Potency": "inconclusive [inhibitor, single point]"},
      {"smiles": "Cn1cc(S(=O)(=O)c2ccccc2)c(=O)c2cc(Cl)ccc21", "Potency": "inconclusive [inhibitor, single point]"},
      {"smiles": "COc1ccc(NC(=O)N2CCOCC2)cc1OC", "activity change, negative = growth inhibition": "inactive: 2.8%"},
      {"smiles": "Cc1ccc(C(C)C)c(OCCCCCN2CCOCC2)c1", "activity change, negative = growth inhibition": "inactive: -16.3%"},
      {"smiles": "C=CCOC(=O)C1=C(C)OC(N)=C(C#N)C1c1ccc2c(c1)OCO2", "note": "(centres undefined)", "Potency": "active: 16.4 µM"},
      {"smiles": "CCc1ccccc1NC(=O)CCNS(=O)(=O)c1ccc2c(c1)CCN2C(=O)C1CC1", "Potency": "active: 18.4 µM"},
      {"smiles": "CCOC(=O)N1CCN(Cc2ccc3c(c2)CN(C(=O)c2cc(-c4ccccc4)on2)CCO3)CC1", "Potency": "active: 20.6 µM"},
      {"smiles": "CCCCCCCCCCCC(=O)O", "activity change, negative = growth inhibition": "inactive: -27.7%"}
    ]}
  ]
}
